Test results published in PMC4336329 (PLoS ONE, 2015).
The campaign covered roughly 310,000 compounds. About 2,200 (0.71%) showed an effect of 50% or more. The effect is printed as a negative number. The list shows a part of the results.

The compounds below were run against human ether-à-go-go-related gene (hERG) potassium channel (human, UniProt Q12809) (assay: primary screen, population patch clamp on CHO cells stably expressing hERG).
Chain of human ether-à-go-go-related gene (hERG) potassium channel (Q12809 whole entry, looked up): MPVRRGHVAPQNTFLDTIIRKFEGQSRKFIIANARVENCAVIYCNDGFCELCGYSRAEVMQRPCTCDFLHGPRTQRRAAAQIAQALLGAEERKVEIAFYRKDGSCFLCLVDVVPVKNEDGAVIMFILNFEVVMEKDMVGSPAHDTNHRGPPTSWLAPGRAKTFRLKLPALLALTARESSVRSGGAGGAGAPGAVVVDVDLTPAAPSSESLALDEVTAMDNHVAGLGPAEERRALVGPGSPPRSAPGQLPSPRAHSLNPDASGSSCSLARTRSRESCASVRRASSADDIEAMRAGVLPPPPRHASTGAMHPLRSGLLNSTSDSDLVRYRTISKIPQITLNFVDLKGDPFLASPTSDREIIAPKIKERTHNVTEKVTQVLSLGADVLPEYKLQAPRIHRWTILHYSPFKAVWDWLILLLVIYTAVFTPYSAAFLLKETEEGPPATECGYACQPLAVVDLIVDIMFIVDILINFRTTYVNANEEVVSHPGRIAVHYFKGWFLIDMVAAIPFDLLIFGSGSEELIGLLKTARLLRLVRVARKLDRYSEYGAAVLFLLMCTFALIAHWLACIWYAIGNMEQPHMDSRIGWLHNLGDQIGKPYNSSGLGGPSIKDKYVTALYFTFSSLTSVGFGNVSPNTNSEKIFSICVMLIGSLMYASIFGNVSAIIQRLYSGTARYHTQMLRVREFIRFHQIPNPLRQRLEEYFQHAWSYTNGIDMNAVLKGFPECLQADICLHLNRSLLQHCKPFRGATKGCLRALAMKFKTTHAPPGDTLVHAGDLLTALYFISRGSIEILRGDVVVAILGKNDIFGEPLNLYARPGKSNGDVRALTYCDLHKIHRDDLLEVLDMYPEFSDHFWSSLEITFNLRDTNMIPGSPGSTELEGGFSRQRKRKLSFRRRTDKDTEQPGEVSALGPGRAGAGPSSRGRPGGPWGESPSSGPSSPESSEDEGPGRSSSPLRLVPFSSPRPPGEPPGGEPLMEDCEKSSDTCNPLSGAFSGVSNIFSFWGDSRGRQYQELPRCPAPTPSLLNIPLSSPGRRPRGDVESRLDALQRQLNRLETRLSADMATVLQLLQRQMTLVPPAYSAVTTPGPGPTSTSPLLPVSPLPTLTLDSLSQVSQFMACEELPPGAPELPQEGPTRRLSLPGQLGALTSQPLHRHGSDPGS

Structure (SMILES)	hERG current change (%, negative = inhibition) at 1uM
COc1ccc(-c2nc(S(=O)(=O)c3ccccc3)c(N3CCOCC3)o2)cc1	20.7%
O=C(c1ccc(OC2CCN(Cc3cccc(F)c3)CC2)cc1)N1CCCCC1	-3.05%
CCNC(=S)Nc1ccc(N2CCCCC2)cc1	10.7%
O=C(COC(=O)COc1ccc2c(c1)CCC2)Nc1ccccc1	5.57%
O=C(CCC(=O)N1CCCC(Nc2ccccc2)C1)c1ccc(F)cc1 (centres unmarked)	9.44%
COCC(=O)N1CCC(Oc2ccc(C(=O)NCCc3ccncc3)cc2)CC1	7.62%
Cc1ccc(SCC(=O)OCC(=O)N(CC(C)C)c2c(N)n(Cc3ccccc3)c(=O)[nH]c2=O)c(C)c1	4.52%
Oc1oc(-c2ccccc2)nc1/C=N/c1nccs1	8.14%
O=C(COC(=O)c1ccc[nH]c1=O)Nc1ccc2c(c1)OC(F)(F)O2	9.4%
N#Cc1c(-c2cccs2)nc(SCC(=O)c2ccc(Br)cc2)[nH]c1=O	10.3%
O=C(COC(=O)c1cccc(S(=O)(=O)NCc2ccccc2)c1)Nc1ccccc1OC(F)F	12.5%
COc1cc(C(=O)c2nccc3cc(OC)c(OC)cc23)c([N+](=O)[O-])cc1OC	4.84%
O=C(c1ccccc1)N(Cc1nc2ccccc2c(=O)[nH]1)C1CCCC1	9.24%
Cc1ccc(CNC(=O)c2ccc[nH]2)cc1	3.06%
O=C(Nc1ccc(Cl)cc1)C1c2cccc[n+]2CC(=O)N1Cc1ccc2c(c1)OCO2.[I-] (centres unmarked)	-2.51%
COc1ccc(NC(=O)Nc2ccc(OC)cc2)cc1	-4.01%
Clc1ccc(-c2ccnc(-n3cccc3)n2)s1	13.5%
C=CCn1c(CCNC(=O)c2cccs2)nnc1SCC(=O)Nc1cccc(C(C)=O)c1	5.75%
COC(=O)CC#N	9.76%

Structure (SMILES)	hERG current change (%, negative = inhibition) at 1uM
O=C(NCCCO)C(=O)c1c(-c2ccccc2)cc2ccccn12	15%
CCn1c(SCC(=O)Nc2ccc(NC(C)=O)cc2)nnc1C1CC1	13.7%
CCOc1ccc(NC(=O)CCC(=O)c2ccc(F)cc2)cc1	13.3%
Cc1cc(C)c(S(=O)(=O)N2CCN(C(=O)N3CCOCC3)CC2)c(C)c1	13.6%
COc1cccc(/C=N/Nc2ncc(C(F)(F)F)cc2Cl)c1O	19.2%
Cc1ccc(-c2cc(C(=O)Nc3cnn(C45CC6CC(CC(C6)C4)C5)c3)no2)cc1	5.94%
CCOC(=O)c1c(C)n(C)c2ccc(OC)c([N+](=O)[O-])c12	6.83%
COC(=O)COn1c(SC(C)C)nc2ccccc2c1=O	-3.55%
Cn1ncc2c(Nc3ccc4ccccc4c3)ncnc21	9.92%
O=C1NC(NS(=O)(=O)c2ccccc2)(C(F)(F)F)C(=O)N1c1ccc(F)cc1 (centres unmarked)	7.82%
CCCc1c(C)nc2c(Br)cccc2c1Cl	9.82%
COC(C/C=C/C(=O)[C@@H](C)OCc1ccccc1)OC	12%
O=c1oc(Nc2ccc(F)cc2)nc2ccccc12	4.75%
O=S(=O)(c1ccc(Br)s1)N1CCN(CCOc2ccccc2)CC1	5.99%
COc1ccc(-c2c(C#N)c(N)nc3sc(C(=O)c4ccccc4)c(N)c23)cc1	7.67%
CN(Cc1ccon1)C(=O)C1CCC(=O)N(Cc2ccc(Cl)cc2)C1 (centres unmarked)	-20.6%
COc1cc(OC)c(NC(=O)C2CC(=O)N(c3ccc4c(c3)OCCO4)C2)cc1Cl (centres unmarked)	5.97%
Cc1ccc(C(=O)NCC(=O)OCC(=O)NC2CCCCCCC2)cc1	-4.25%
Cc1ccc2nc(-c3ccccc3NC(=O)CCC(=O)O)c(=O)[nH]c2c1	13.1%

Structure (SMILES)	hERG current change (%, negative = inhibition) at 1uM
CCO[C@@H]1OC(C(=O)N2CCN(Cc3ccc4c(c3)OCO4)CC2)=C[C@H](c2ccc(Br)cc2)[C@H]1CCCO	1.19%
COc1cc(Br)c(CNc2cc(C)ccc2C)cc1OC.O=C(O)C(=O)O	14%
C/C(=N\NC(=O)c1cc([N+](=O)[O-])cc([N+](=O)[O-])c1)c1ccco1	8.74%
NS(=O)(=O)c1cccc(NC(=O)COC(=O)CC2CC3CCC2C3)c1 (centres unmarked)	1.5%
CC(=O)Nc1ccc(S(=O)(=O)N2CCN(c3nc(C)cc(C)n3)CC2)cc1	14.9%
Cc1ccc(N2C(=O)CSC23C(=O)Nc2ccccc23)cc1 (centres unmarked)	2.82%
CC(=O)n1cc([C@@H]2C=C(C(=O)N3CCN(Cc4ccc5c(c4)OCO5)CC3)O[C@H](OCc3ccc(CO)cc3)C2)c2ccccc21	6.66%
Cn1nnnc1SC(C(=O)Nc1cccc(C(F)(F)F)c1)c1ccccc1 (centres unmarked)	9.74%
CC(=O)Nc1ccc(NC(=O)CN(c2ccccc2Cl)S(C)(=O)=O)cc1	10%
CC(C)c1[nH]nc2c1C(c1ccc(OC(=O)c3ccco3)cc1)C(C#N)=C(N)O2 (centres unmarked)	13.1%
N#Cc1cccc(NC(=O)CN2CCCCCC2)c1	8.66%
CC(=O)N1CC(c2ccccc2)C(c2ccc(Cl)cc2)=N1 (centres unmarked)	11.6%
O=C(Nc1ccc2c(c1)OCO2)C1CCCCC1	-1.12%
CC(C)(C)c1ccccc1OCCOCCNCc1ccccc1.O=C(O)C(=O)O	6.67%
COCCCNC(=O)c1ccc(C(=O)NCCCOC)cc1	-0.0011%
CCN(CC)C(=O)c1oc2ccc(S(=O)(=O)N3CC(C)CC(C)C3)cc2c1C (centres unmarked)	12.9%
O=c1oc2cc(Oc3ccc(C(F)(F)F)cc3[N+](=O)[O-])ccc2c2c1CCC2	5.4%
CC1CN(S(=O)(=O)c2ccc(NC(=O)c3cc(-c4ccccc4O)n[nH]3)cc2)CC(C)O1 (centres unmarked)	12%
